Measured values published in publication PMC12136788.
Substitutions are numbered along the chain they refer to. The list shows a part of the results.

B1: chr11:4127340:4127341:+_ENSG00000167325_ENST00000300738|hu_mus|hu_hu_hu_mus_False|78_88 (ssRNA)
RNA: GGGAGUUCUACAGUCCGACGAUCGGCAUAGUCAGGGUGCUUCGUGGUCAAGGUUGCAGCUGUUUCAGCAGCCAGGGUGUCCAGUUCCACUGUGGUGACCCCACUAUAUAGGCCUUGGAUUACUUUCAUGGUGAUCUGAGCAGGCAACAGAGGAUUGAGCAUCA
B2: chr12:39763582:39763583:-_ENSG00000139116_ENST00000544797|hu_mus|hu_hu_hu_mus_False|88_108 (ssRNA)
RNA: GGGAGUUCUACAGUCCGACGAUCCUCUAAGAAUUGGGCAUUCACUUUAAAAUCUGGAGGGGGCAGCCCGUUUUUAAUCGCUGAGGUCUUUUUCUCAUCAAUACUCUUGAACAGGUGUCUAACAGCACGAGAGAUGAUGCCCUGCAACAGAGGAUUGAGCAUCA
B3: chr4:25749455:25749456:-_ENSG00000091490_ENST00000264868|hu_hu|hu_hu_hu_mus_False|58_58 (ssRNA)
RNA: GGGAGUUCUACAGUCCGACGAUCGCACUAUGACCUCUAGAAAAAUCCACAGGGGGAAAAAAUGUAAACCAAUGUACAAAGCUAUUGCCUUCCCUGUGUGUGGAGUGUUUGUCUCAAGGCUCCUUCUAGCUGCUGGAUUUGGGACAACAGAGGAUUGAGCAUCA
B4: chr8:107054336:107054337:-_ENSMUSG00000031878_ENSMUST00000034349|mus_hu|FALSE|FALSE (ssRNA)
RNA: GGGAGUUCUACAGUCCGACGAUCCGAACCAAUACCUGGUAGUACCAAGUUUUUAAGAAUUUCAGUUCCUGUGGCUGUUGCAUUUAUUAGGCAAACAUGAGCAGAUUCUAAAGCCUCUUGCCCAUGAUCACCCCACAACCUCAGCAACAGAGGAUUGAGCAUCA
B5: chr4:13604834:13604835:-_ENSG00000038219_ENST00000040738|hu_hu|motif|central (ssRNA)
RNA: GGGAGUUCUACAGUCCGACGAUCACUCAGUAACAUUCUAUGAACAGUUUCAGAAUCUAUAUUCACUUCAGUAGUUCCUCGGUGAAUGGGUUCUUUCUCCCCAGGGUUCAUUUUGGACACAGCACUUUGUAUAUGCAUUUUCUUCAACAGAGGAUUGAGCAUCA
B6: 31413778_31421566_244_CDS_ENSG00000101367_ENST00000375571|human|control|control (ssRNA)
RNA: GGGAGUUCUACAGUCCGACGAUCGGAGCCAGGGAACAGCAUGUCCAUAAACUGACAAUACGCAGCCCCUGAGCACAACUGUUCGAUCUUUGUCAGAUUCAACUGCAGAGACUCAUUGAUCCAGGCCAGCAUGUCAUGUCGACUCAACAGAGGAUUGAGCAUCA
B7: chr8:81716360:81716361:+_ENSMUSG00000071064_ENSMUST00000098614|mus_mus|motif|central (ssRNA)
RNA: GGGAGUUCUACAGUCCGACGAUCCUAAGCAGGCCCCUCAUCCACGGCUGGAUGUCAGGUGGGGAGGGAAGCAGGGCCCUGCGGGGUUUGGAGAGGGAGGCUGCGAAGGUAUAAGGAGCUGAUGAUGUGGACUGUUCAGUCUCUCAACAGAGGAUUGAGCAUCA
B8: chr17:45747064:45747065:+_ENSG00000108424_ENST00000290158|hu_hu|motif|central (ssRNA)
RNA: GGGAGUUCUACAGUCCGACGAUCGCCUACAGUCCAUGCAGCUGUAUCUCGAACAACUACACUGGGGUCUUUCAUUAAUUCGGUUAGGGUGGGCAUAGCCUGUAUAACUAGUGGUUUGAGCUGACUGGGCUCUGGUCCUUCCAACAACAGAGGAUUGAGCAUCA
B9: chr11:74329583:74329584:+_ENSG00000077514_ENST00000263681|hu_mus|motif|central (ssRNA)
RNA: GGGAGUUCUACAGUCCGACGAUCGGAAGAUGGGGAUUCUGCAGGAGCUCUGGGGACUGCAGCUGCACACUGUAUGGCACGGAACUUGCUGCAGUUCUGCAAAUUGCUUUUAAGGAUGUCAUAGUCGGUAUUGAACAGAGGCCCCAACAGAGGAUUGAGCAUCA
B10: chrX:140365796:140365797:-_ENSMUSG00000031285_ENSMUST00000033642|mus_mus|mus_mus_mus_hu_False|18_108 (ssRNA)
RNA: GGGAGUUCUACAGUCCGACGAUCCUUCUCAUUACUUAGUGCCUGCAAGGUUCUGGUUCGGUAGAAGCUACAGUGGGCGCUGUGAGUGGGGCUAGGCAACCCAUUCAUCCGGGAGCCUCUCAUAUUUCUGGAUGUCUUAUCUCUCAACAGAGGAUUGAGCAUCA
B11: chr3:179287964:179287965:+_ENSG00000136518_ENST00000429709|hu_hu|hu_hu_hu_mus_True|48_108 (ssRNA)
RNA: GGGAGUUCUACAGUCCGACGAUCCUUUAGAGGUGAAAUGGCCUCCAUGUUCUCCCUGGGCACGCGGAGGGCAUUGGUGUCUAUGUAGUAGGUGGGACCGCCCUGCUUGCCUUUGUCACCAUCAAUCUCCAUCAUUGUACUUCCCAACAGAGGAUUGAGCAUCA
B12: 13335207_13337456_1872_CDS_ENSMUSG00000020576_ENSMUST00000042953|mouse|control|control (ssRNA)
RNA: GGGAGUUCUACAGUCCGACGAUCGCUGUCAAUGUCUAUGUCACCUGGUAAGGUAAAUCUGCCAUCAUCCACACCCUUUCCUAUGGCGACGAGAGCCUCCAGGUCUGUGCCUUUCAAGCCAUACUGCAGCAGUUCCUUGGCAGCCAACAGAGGAUUGAGCAUCA
B13: 41075646_41075766_6519_CDS_ENSG00000124486_ENST00000378308|human|control|control (ssRNA)
RNA: GGGAGUUCUACAGUCCGACGAUCAAUAAUCUGAUGAGGUCUGGUGGUGAUAGCAAGCUCUGAUAUAUAUCUUAUCAACUCAUCAUCUUGGUCUAUUGUGUCCAUUCGUUCAUAAAAAAGUAUAUAAGCAUUCCACCACCUUUUCAACAGAGGAUUGAGCAUCA
B14: chr19:7348912:7348913:+_ENSMUSG00000024968_ENSMUST00000066646|mus_mus|FALSE|FALSE (ssRNA)
RNA: GGGAGUUCUACAGUCCGACGAUCGCGGAGCAAUGUGGGAGCUGUGGGCAGAGGUGGCCUCAGCAGCGGGGGUGGCUGGGAAAGCGAGGUGGGCGGUGGAGGUGGGGGCGGUGCAGGGGGUACUGAUCGGGGUACUGAUGUUGACAACAGAGGAUUGAGCAUCA
B15: chr3:38534408:38534409:+_ENSG00000114739_ENST00000352511|hu_hu|FALSE|FALSE (ssRNA)
RNA: GGGAGUUCUACAGUCCGACGAUCUUCAAGCAGCAAAACCCCAACUUAGCAGAUCUAAUUUCAAACUUGACACUCAUUUCUAAAAUUACCACAGUAAAAAGGAACAAAGAUCCACUGCAAAUGAAUGAACUAUGAUACAAUGUUCAACAGAGGAUUGAGCAUCA
B16: chr4:76721835:76721836:+_ENSG00000138768_ENST00000264904|hu_mus|FALSE|FALSE (ssRNA)
RNA: GGGAGUUCUACAGUCCGACGAUCGUUUGGCUGGGGUUUCUGAGACGCUCUGGAAUAUAACUCAUGUUUGCUAAUAAAUCCUAGUUUCUCUAUGAAAUUCUCUUUGCCAAUCCUCUUCUCUAUUAGUUGCUUUAGUUUCUCUUUCAACAGAGGAUUGAGCAUCA
B17: 57394321_57396401_707_CDS_ENSMUSG00000032306_ENSMUST00000034856|mouse|control|control (ssRNA)
RNA: GGGAGUUCUACAGUCCGACGAUCCAGCUGCAGCAAGAGCUUCCCAUAAAUGUCCUCCAUAUUGUUUCCGUCAAAUACUUGCUGGGAGAUCCGUUUCACCAACAGGUUAAGCUGCUCCACCACCACCUUCUUCUCACUCUUCAUCAACAGAGGAUUGAGCAUCA
B18: chr17:45747064:45747065:+_ENSG00000108424_ENST00000290158|hu_hu|hu_hu_hu_mus_True|18_28 (ssRNA)
RNA: B8 RNA with U27C, U36C, A39U, C41U, A45G, A77G, G81U, G82A, A105G
B19: chr14:66974463:66974464:+_ENSMUSG00000022044_ENSMUST00000074523|mus_hu|mus_mus_mus_hu_False|18_108 (ssRNA)
RNA: GGGAGUUCUACAGUCCGACGAUCUUGUAGGAUGAUUUAUUCAGGGGAUCGGCCAGGAAGCAGGAGCAGAACAAGGACACCAGCGGGAGCUCCUUCAUCUUCUCUUUGUAGGCAGCAAGAGUCAUGUUUCUGGGAUCUGGUGGCCAACAGAGGAUUGAGCAUCA
B20: chr2:73037555:73037556:-_ENSMUSG00000027108_ENSMUST00000028517|mus_mus|motif|central (ssRNA)
RNA: GGGAGUUCUACAGUCCGACGAUCAAAGGCAUUCCCCAAGCCCUGCCCAUUGUGAGCUCCUUUUACAAGGCCAGCAAUAUCCACGGCAUUUAGGAAAGCAGGAAUCUUGCUUGCUGGUUUAUGGUACUGGCAAAGAAAGUCGAACAACAGAGGAUUGAGCAUCA
B21: chr14:27472611:27472612:+_ENSMUSG00000021877_ENSMUST00000022429|perfect_dup|FALSE|FALSE (ssRNA)
RNA: GGGAGUUCUACAGUCCGACGAUCUUCCAGAAGCAUUUUCUGCAGCACAGCUGCUCCUUCCUGGAUUCUUUCACGAUCAUUGCUAUCUACCACAAAAAUGAGACCCUGGGUAUUCUGGAAGUAAUGCCUCCAGAGAGGCCUAAUCAACAGAGGAUUGAGCAUCA
B22: chr5:77717642:77717643:+_ENSG00000085365_ENST00000538629|hu_hu|FALSE|FALSE (ssRNA)
RNA: GGGAGUUCUACAGUCCGACGAUCAACCGCUCUUGCAGAAUCAACACAAAACCAAGCCAAGCAUCCGAAGAUAUUUAGAAACAGUGUUACUGCAUGGAACAUCCACAAGUAGUACAUAAGCUUUACUGUCUUUUGGAAUUCUACCAACAGAGGAUUGAGCAUCA

What follows are binders tested against T1, UNK ZnF1-3 (human, UniProt Q9C0B0 31-174) (assay: nsRBNS (natural sequence RNA bind-n-seq); RBNS binding buffer (assumed for nsRBNS): 25 mM Tris pH 7.5, 150 mM KCl, 3 mM MgCl2, 0.01% Triton X-100, 500 ug/ml BSA, 20 U/ml SUPERase-In, 4 C; UNK is unkempt and MSI1 is Musashi-1; names of the RNAs are library labels; protein concentration not given here; high values mean tight binding).
T1 sequence: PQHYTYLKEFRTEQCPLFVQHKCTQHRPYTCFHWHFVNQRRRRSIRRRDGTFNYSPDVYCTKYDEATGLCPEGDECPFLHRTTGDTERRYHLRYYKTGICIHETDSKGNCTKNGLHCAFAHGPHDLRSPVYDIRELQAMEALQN
B1 showed a binding signal of 1.03 enrichment R.
B2 showed a binding signal of 1.98 enrichment R.
Work on B3 yielded a binding signal of 1.14 enrichment R.
In the case of B4, the binding signal is reported as 0.439 enrichment R.
Work on B5 yielded a binding signal of 0.548 enrichment R.
Work on B6 yielded a binding signal of 0.942 enrichment R.
Binder B7 has a binding signal of 1.44 enrichment R.
Work on B8 yielded a binding signal of 0.974 enrichment R.
With B9 the binding signal was 0.806 enrichment R.
With B10 the binding signal was 0.83 enrichment R.
Binder B11 has a binding signal of 0.804 enrichment R.
With B12 the binding signal was 1.15 enrichment R.
B13 showed a binding signal of 0.762 enrichment R.
Work on B14 yielded a binding signal of 1.49 enrichment R.
With B15 the binding signal was 1.53 enrichment R.
For B16, the binding signal was 0.486 enrichment R.
B17 gave a binding signal of 0.974 enrichment R.
For B18, the binding signal was 0.717 enrichment R.
B19 showed a binding signal of 2.44 enrichment R.
In the case of B20, the binding signal is reported as 1.19 enrichment R.
Work on B21 yielded a binding signal of 0.885 enrichment R.
Binder B22 has a binding signal of 1.09 enrichment R.
